From the supplement of paper PMC8728848
The list shows a part of the results.

Assays:
Assay in all cases: glycan array binding signal (z-score within array); higher = stronger binding
Conditions in all cases: glycan notation: IUPAC condensed, linker removed
[1] = molecular target: Gal(b1-4)GlcNAc(b1-6)GalNAc
Summary of the method: (§1)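 Glycan array data were curated from 3228 arrays in the Consortium for Functional Glycomics database and kept only where the protein sequence was available. Glycan names were converted to IUPAC-condensed notation, and columns mapping to the same glycan were averaged. The binding signal is a within-array Z-score, averaged across arrays of the same protein sequence at different concentrations or buffers and across linkers. Negative Z-scores can be read as non-binding.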

[2] = molecular target: Gal(b1-4)GlcNAc(b1-6)[Gal(b1-3)]GalNAc
Summary of the method: as §1

[3] = molecular target: Gal(b1-4)GlcNAc(b1-6)[Gal(b1-4)GlcNAc(b1-3)]GalNAc
Summary of the method: as §1

Gal(b1-4)GlcNAc6P = molecular target: Gal(b1-4)GlcNAc6P
Summary of the method: as §1

Gal(b1-6)Gal = molecular target: Gal(b1-6)Gal
Summary of the method: as §1

Gal3S(b1-3)GalNAc = molecular target: Gal3S(b1-3)GalNAc
Summary of the method: as §1

Gal3S(b1-3)GlcNAc = molecular target: Gal3S(b1-3)GlcNAc
Summary of the method: as §1

[4] = molecular target: Gal3S(b1-3)[Fuc(a1-4)]GlcNAc
Summary of the method: as §1

Gal3S(b1-4)Glc = molecular target: Gal3S(b1-4)Glc
Summary of the method: as §1

Gal3S(b1-4)Glc6S = molecular target: Gal3S(b1-4)Glc6S
Summary of the method: as §1

Gal3S(b1-4)GlcNAc = molecular target: Gal3S(b1-4)GlcNAc
Summary of the method: as §1

Gal3S(b1-4)GlcNAc6S = molecular target: Gal3S(b1-4)GlcNAc6S
Summary of the method: as §1

[5] = molecular target: Gal3S(b1-4)[Fuc(a1-3)]Glc6S
Summary of the method: as §1

[6] = molecular target: Gal3S(b1-4)[Fuc(a1-3)]GlcNAc
Summary of the method: as §1

[7] = molecular target: Gal3S(b1-4)[Fuc(a1-3)]GlcNAc6S
Summary of the method: as §1

Gal3S4S(b1-4)GlcNAc = molecular target: Gal3S4S(b1-4)GlcNAc
Summary of the method: as §1

Gal3S6S(b1-4)GlcNAc = molecular target: Gal3S6S(b1-4)GlcNAc
Summary of the method: as §1

Gal3S6S(b1-4)GlcNAc6S = molecular target: Gal3S6S(b1-4)GlcNAc6S
Summary of the method: as §1

Gal4S(b1-4)GlcNAc = molecular target: Gal4S(b1-4)GlcNAc
Summary of the method: as §1

Gal4S6S(b1-4)GlcNAc = molecular target: Gal4S6S(b1-4)GlcNAc
Summary of the method: as §1

Gal6P(b1-4)GlcNAc = molecular target: Gal6P(b1-4)GlcNAc
Summary of the method: as §1

Gal6S(b1-3)GlcNAc = molecular target: Gal6S(b1-3)GlcNAc
Summary of the method: as §1

Gal6S(b1-3)GlcNAc6S = molecular target: Gal6S(b1-3)GlcNAc6S
Summary of the method: as §1

Gal6S(b1-4)Glc = molecular target: Gal6S(b1-4)Glc
Summary of the method: as §1

Gal6S(b1-4)Glc6S = molecular target: Gal6S(b1-4)Glc6S
Summary of the method: as §1

Gal6S(b1-4)GlcNAc = molecular target: Gal6S(b1-4)GlcNAc
Summary of the method: as §1

Gal6S(b1-4)GlcNAc6S = molecular target: Gal6S(b1-4)GlcNAc6S
Summary of the method: as §1

GalNAc(a1-3)Gal = molecular target: GalNAc(a1-3)Gal
Summary of the method: as §1

GalNAc(a1-3)GalNAc = molecular target: GalNAc(a1-3)GalNAc
Summary of the method: as §1

[8] = molecular target: GalNAc(a1-3)GalNAc(b1-3)Gal(a1-4)Gal(b1-4)Glc
Summary of the method: as §1

[9] = molecular target: GalNAc(a1-3)GalNAc(b1-3)Gal(a1-4)Gal(b1-4)GlcNAc
Summary of the method: as §1

GalNAc(b1-3)Gal = molecular target: GalNAc(b1-3)Gal
Summary of the method: as §1

[10] = molecular target: GalNAc(b1-3)Gal(a1-4)Gal(b1-4)GlcNAc
Summary of the method: as §1

[11] = molecular target: GalNAc(b1-3)Gal(a1-4)Gal(b1-4)GlcNAc(b1-3)Gal(b1-4)Glc
Summary of the method: as §1

[12] = molecular target: GalNAc(b1-3)Gal(a1-6)Gal(b1-4)Glc
Summary of the method: as §1

GalNAc(b1-3)GalNAc = molecular target: GalNAc(b1-3)GalNAc
Summary of the method: as §1

GalNAc(b1-3)GlcNAc = molecular target: GalNAc(b1-3)GlcNAc
Summary of the method: as §1

GalNAc(b1-4)Gal(b1-4)Glc = molecular target: GalNAc(b1-4)Gal(b1-4)Glc
Summary of the method: as §1

GalNAc(b1-4)GlcNAc = molecular target: GalNAc(b1-4)GlcNAc
Summary of the method: as §1

[13] = molecular target: GalNAc(b1-4)GlcNAc(b1-2)Man
Summary of the method: as §1

[14] = molecular target: GalNAc(b1-4)GlcNAc(b1-2)Man(a1-3)[GalNAc(b1-4)GlcNAc(b1-2)Man(a1-6)]Man(b1-4)GlcNAc(b1-4)GlcNAc
Summary of the method: as §1

[15] = molecular target: GalNAc(b1-4)GlcNAc(b1-3)GalNAc(b1-4)GlcNAc
Summary of the method: as §1

GalNAc(b1-4)GlcNAc6S = molecular target: GalNAc(b1-4)GlcNAc6S
Summary of the method: as §1

GalNAc(b1-6)GalNAc = molecular target: GalNAc(b1-6)GalNAc
Summary of the method: as §1

GalNAc3S(b1-4)GlcNAc = molecular target: GalNAc3S(b1-4)GlcNAc
Summary of the method: as §1

B1: BDCA-2 (Homo sapiens), Q8WTT0 (protein)
chain: MVPEEEPQDREKGLWWFQLKVWSMAVVSILLLSVCFTVSSVVPHNFMYSKTVKRLSKLREYQQYHPSLTCVMEGKDIEDWSCCPTPWTSFQSSCYFISTGMQSWTKSQKNCSVMGADLVVINTREEQDFIIQNLKRNSSYFLGLSDPGGRRHWQWVDQTPYNENVTFWHSGEPNNLDERCAIINFRSSEEWGWNDIHCHVPQKSICKMKKIYI
- glycan array binding signal (z-score) [1]: -0.179
- glycan array binding signal (z-score) [2]: -0.164
- glycan array binding signal (z-score) [3]: -0.166
- glycan array binding signal (z-score) (Gal(b1-4)GlcNAc6P): -0.139
- glycan array binding signal (z-score) (Gal(b1-6)Gal): -0.12
- glycan array binding signal (z-score) (Gal3S(b1-3)GalNAc): -0.238
- glycan array binding signal (z-score) (Gal3S(b1-3)GlcNAc): -0.137
- glycan array binding signal (z-score) [4]: -0.107
- glycan array binding signal (z-score) (Gal3S(b1-4)Glc): -0.163
- glycan array binding signal (z-score) (Gal3S(b1-4)Glc6S): -0.142
- glycan array binding signal (z-score) (Gal3S(b1-4)GlcNAc): -0.136
- glycan array binding signal (z-score) (Gal3S(b1-4)GlcNAc6S): 0.385
- glycan array binding signal (z-score) [5]: -0.133
- glycan array binding signal (z-score) [6]: -0.167
- glycan array binding signal (z-score) [7]: -0.172
- glycan array binding signal (z-score) (Gal3S4S(b1-4)GlcNAc): -0.193
- glycan array binding signal (z-score) (Gal3S6S(b1-4)GlcNAc): 0.209
- glycan array binding signal (z-score) (Gal3S6S(b1-4)GlcNAc6S): 0.611
- glycan array binding signal (z-score) (Gal4S(b1-4)GlcNAc): -0.022
- glycan array binding signal (z-score) (Gal4S6S(b1-4)GlcNAc): 0.293
- glycan array binding signal (z-score) (Gal6P(b1-4)GlcNAc): -0.088
- glycan array binding signal (z-score) (Gal6S(b1-3)GlcNAc): -0.155
- glycan array binding signal (z-score) (Gal6S(b1-3)GlcNAc6S): -0.179
- glycan array binding signal (z-score) (Gal6S(b1-4)Glc): -0.02
- glycan array binding signal (z-score) (Gal6S(b1-4)Glc6S): 0.188
- glycan array binding signal (z-score) (Gal6S(b1-4)GlcNAc): 0.437
- glycan array binding signal (z-score) (Gal6S(b1-4)GlcNAc6S): -0.168
- glycan array binding signal (z-score) (GalNAc(a1-3)Gal): -0.016
- glycan array binding signal (z-score) (GalNAc(a1-3)GalNAc): -0.119
- glycan array binding signal (z-score) [8]: -0.186
- glycan array binding signal (z-score) [9]: -0.114
- glycan array binding signal (z-score) (GalNAc(b1-3)Gal): -0.179
- glycan array binding signal (z-score) [10]: -0.21
- glycan array binding signal (z-score) [11]: -0.179
- glycan array binding signal (z-score) [12]: -0.178
- glycan array binding signal (z-score) (GalNAc(b1-3)GalNAc): 0.03
- glycan array binding signal (z-score) (GalNAc(b1-3)GlcNAc): -0.161
- glycan array binding signal (z-score) (GalNAc(b1-4)Gal(b1-4)Glc): -0.08
- glycan array binding signal (z-score) (GalNAc(b1-4)GlcNAc): -0.018
- glycan array binding signal (z-score) [13]: -0.164
- glycan array binding signal (z-score) [14]: -0.119
- glycan array binding signal (z-score) [15]: -0.182
- glycan array binding signal (z-score) (GalNAc(b1-4)GlcNAc6S): -0.167
- glycan array binding signal (z-score) (GalNAc(b1-6)GalNAc): -0.153
- glycan array binding signal (z-score) (GalNAc3S(b1-4)GlcNAc): -0.171
